# Test results reported in article PMC6919601, “Identification of Plasmodium dipeptidyl aminopeptidase allosteric inhibitors by high throughput screening” (PLoS ONE, 2019).
# Hit rate of the full screen: of about 110,000 compounds, about 230 (0.21%) showed an effect of 50% or more. The list shows a part of the results.
# Molecular target: DPAP1 (Plasmodium falciparum, UniProt Q8IIJ9)
# Assay: primary screen, percent inhibition; read by cleavage of a fluorogenic dipeptide substrate; higher = more effect of the substance
# Design: species or system P. falciparum D10 trophozoite lysates; single well
# 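Also: 30 min substrate incubation versus DMSO and 10 µM JCP410 controls.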
# Chain of DPAP1 (Q8IIJ9 whole entry, looked up): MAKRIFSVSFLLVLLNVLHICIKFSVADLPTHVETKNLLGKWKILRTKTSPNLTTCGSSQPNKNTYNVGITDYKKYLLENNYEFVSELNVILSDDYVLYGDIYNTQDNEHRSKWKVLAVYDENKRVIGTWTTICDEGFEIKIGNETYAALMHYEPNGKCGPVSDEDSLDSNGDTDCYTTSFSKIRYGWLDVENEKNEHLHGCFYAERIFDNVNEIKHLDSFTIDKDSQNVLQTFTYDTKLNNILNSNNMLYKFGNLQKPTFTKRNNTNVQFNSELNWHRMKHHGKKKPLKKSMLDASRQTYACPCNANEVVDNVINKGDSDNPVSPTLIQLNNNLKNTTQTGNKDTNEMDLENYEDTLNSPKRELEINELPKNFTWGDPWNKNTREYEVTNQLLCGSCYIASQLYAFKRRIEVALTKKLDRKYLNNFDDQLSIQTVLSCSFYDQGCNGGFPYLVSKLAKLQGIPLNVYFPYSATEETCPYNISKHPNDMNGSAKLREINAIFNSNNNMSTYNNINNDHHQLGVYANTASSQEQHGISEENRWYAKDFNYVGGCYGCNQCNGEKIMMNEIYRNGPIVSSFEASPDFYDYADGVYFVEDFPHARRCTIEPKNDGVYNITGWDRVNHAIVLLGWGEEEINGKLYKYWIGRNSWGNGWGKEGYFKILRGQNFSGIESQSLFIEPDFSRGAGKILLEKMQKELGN
row,Structure (SMILES),% Inhibition @ 10 uM
1,Cc1ccccc1N1CCN(CN2C(=O)S/C(=C/c3ccco3)C2=O)CC1,6.78%
2,COc1ccc2[nH]c(N3CCOCC3)nc2c1,0.0538%
3,COc1ccc(C2C(C#N)=C(N)N(c3ccccc3)C3=C2C(=O)CCC3)cc1 (stereo not drawn),0.687%
4,CCn1nccc1C(=O)N(C)C12CC3CC(CC(C3)C1)C2,-1.37%
5,CCOC(=O)C1=C(C)OC(N)=C(C#N)C1c1cc(Br)cs1 (stereo not drawn),-3.72%
6,CC1=[N+]([O-])C(C)(C)[N+]([O-])=C1c1ccc(Cl)cc1,1.84%
7,Cc1ccc(C(=O)n2cnc3ccccc32)cc1,3.74%
8,COc1ccc(C(=O)CSc2nnnn2C2CCCCC2)cc1OC,0.883%
9,CCC1=NN(C(=O)c2ccc(OC)cc2)C(O)(c2ccc(OC)cc2)C1 (stereo not drawn),6.74%
10,CCCN(CCO)Cc1ccc(Cl)cc1Cl,-2.34%
11,C=Cc1ccc(Cn2c(C)c(CNCc3ccccc3OC)c(C(=O)O)c2C)cc1,15.3%
12,CC(=O)c1cccc(NC(=O)c2ccc(C(=O)Nc3cccc(C(C)=O)c3)nc2)c1,2.03%
13,N#Cc1ccc(Oc2ccc(-c3ccccc3)cc2)cc1C#N,-4.96%
14,Clc1ccc(-c2csc(N3CCOCC3)n2)c(Cl)c1,8.6%
15,CCc1ccc2oc(C(=O)NCc3ccc(C)cc3)cc(=O)c2c1,-5.31%
16,N#CC1=C(N)N(c2ccccc2F)C2=C(C(=O)CCC2)C1c1ccsc1 (stereo not drawn),3.46%
17,CN(Cc1ccccc1)S(=O)(=O)c1nnc(NC(=O)c2ccc(F)cc2)s1,-4.37%
18,COC(=O)c1ccccc1Nc1nc(-c2ccccc2)cc(-c2ccccc2)n1,-3.77%
19,COCC(=O)NCc1nc2ccccc2n1Cc1ccccc1F,2.64%
20,CC1=NO[C@]2(C)CCC3C(C)(C)CCC[C@]3(C)[C@H]2C1 (stereo partly drawn),-3.27%
21,CCC1CCCCN1CCCNC(=O)C1CCN(C(=O)c2cc3sccc3n2C)CC1 (stereo not drawn),1.8%

row,Structure (SMILES),% Inhibition @ 10 uM
1,COc1ccc(CC(=O)Nc2c(C(=O)N3CCC(N4CCCCC4)CC3)oc3ccccc23)cc1,-2.53%
2,Cc1cc2ncn(C(=O)Cn3cnc4c3c(=O)n(C)c(=O)n4C)c2cc1C,1.58%
3,CCOc1cc(C2C=C(c3ccc(F)cc3)Nc3ncnn32)ccc1OC(F)F (stereo not drawn),-1.62%
4,CC1CCN(S(=O)(=O)c2ccc(NC(=O)Cc3ccc(Br)cc3)cc2)CC1,1.52%
5,OC1(c2ccc(Br)cc2)CCN(C2CCCCCC2)CC1,-1.82%
6,COc1ccc(C2=Cc3ccccc3C(C)(C)O2)cc1,1.72%
7,Cc1ccc(/C(O)=C/c2nc3ccc([N+](=O)[O-])cc3nc2/C=C(\O)c2ccc(C)cc2)cc1,2.6%
8,Cc1ccc(Cn2ncc(Cl)c(Cl)c2=O)cc1,38.7%
9,O=C(CSc1nc(-c2ccccc2Cl)n[nH]1)NC1CCCCC1,-3.63%
10,CCC(Sc1nc2nccnc2c(=O)n1CCc1ccccc1)C(=O)NCc1ccc(C)cc1 (stereo not drawn),0.813%
11,CC(C)C(NC(=O)c1ccc(C23CC4CC(CC(C4)C2)C3)cc1)C(=O)O (stereo not drawn),-4.69%
12,O=C(NC(Cc1ccccc1)C(=O)O)/C(=C/c1ccc(Cl)cc1)NC(=O)c1ccccc1 (stereo not drawn),3.95%
13,CNS(=O)(=O)c1cn(CC(=O)NCc2ccc(F)cc2)cc1S(=O)(=O)NC,-1.05%
14,Cc1ccc(OCCOc2ccccc2C=C2C(=O)N(C)C(=O)N(C)C2=O)cc1,-0.467%
15,COC(=O)C1=C(C)N(c2ccc(Cl)cc2)C(=O)/C1=C\c1ccccc1O,0.392%
16,COc1cc(C(=O)NCCc2nc3ccccc3[nH]2)cc(OC)c1OC,19.2%
17,COc1ccc(C(=O)Nc2ccccc2C(=O)O)cc1N,-5.98%
18,O=C(CCC(=O)n1ncc2ccccc21)NC1CCCCC1,-1.11%
19,CC1(C)CC2=Nc3nc(C(F)(F)F)nn3C(c3ccccc3F)C2=C(O)C1 (stereo not drawn),1.73%
20,O=C(NCCSc1ccc(Cl)cc1)c1ccco1,-7.58%
21,O=C1N=C(Nc2ccc(F)cc2)S/C1=C\c1cc(Cl)ccc1O,28.8%

row,Structure (SMILES),% Inhibition @ 10 uM
1,CC(NC(=O)CN(C1CCCCC1)S(=O)(=O)c1ccc(Cl)cc1)c1ccccc1 (stereo not drawn),-1.37%
2,COc1ccccc1N1CCN(CCN2C(=O)C3CCCCN3C2=O)CC1 (stereo not drawn),-7.15%
3,CC(C)CCN1CC(C)C(O)(c2ccccc2)CC1C (stereo not drawn),-1.91%
4,Cc1ccccc1N1C(N)=C(C#N)C(c2ccc3c(c2)OCO3)C2=C1CCCC2=O (stereo not drawn),1.01%
5,COc1ccc(C2(C(=O)Nc3ccccc3C)CCOCC2)cc1OC,-8.95%
6,COc1cc2c(C(=O)N3CCOCC3)c(CSc3ccccc3)n(C)c2cc1Br,3.66%
7,N#CC1=C(N)Oc2c(c(=O)oc3ccccc23)C1c1ccsc1 (stereo not drawn),2.4%
8,O=C1C2C(c3ccccc3)OC3(C(=O)c4ccccc4C3=O)C2C(=O)N1CCc1ccc(F)cc1 (stereo not drawn),0.931%
9,CCCc1c(C)nc2c(-c3ccc(Cl)cc3)c(C)nn2c1O,1.91%
10,CCc1ccc(CNC(=O)CCn2cnc3onc(-c4ccc(F)cc4)c3c2=O)cc1,-1.61%
11,CC1=C(c2ccc(Cl)cc2)S(=O)(=O)N=C1N1CCN(C(=O)c2ccco2)CC1,2.27%
12,CN(C)CCCOC(=O)c1sc2ccccc2c1Cl,-10.2%
13,COc1ccc(C2=N/C(=C/c3cc(OC)c(OC)c(OC)c3)C(=O)O2)cc1Br,2.93%
14,Cn1nc(C(F)(F)C(F)F)cc1-c1ccccc1O,-1.69%
15,c1ccc(CN2CCC(NC3CCCC3)CC2)cc1,4.54%
16,Sc1nnc(-c2ccccc2Cl)n1-c1ccccc1,4.54%
17,COc1ccccc1CNS(=O)(=O)c1ccc(-c2ccc(O)nn2)s1,-1.79%
18,COCCNC(=O)c1ccc2[nH]c(C)c(C)c2c1,-3.76%
19,Fc1ccc(Nc2nc(-c3ccccc3)cs2)cc1,-0.771%
20,O=C(NC(c1ccccc1)c1c(O)ccc2ccccc12)c1ccccc1 (stereo not drawn),-3.98%
21,CCN(CC)CCn1c(NC(=O)c2cccc(F)c2)nc2ccccc21,4.54%
